Measured values reported in patent US20230372407A1, “METHODS FOR MODULATING TLR4 SIGNALING” (President and Fellows of Harvard College, priority 2020, published 2023).

Settings: relative to LOS

polysaccharide A [PSA]
solubility: enhanced solubility
